The supplement of paper PMC3334620
The full ranking holds about 33,000 sequences; the median of “E-score (-0.5 to 0.5)” is about -0.011, and the highest 2% start at about 0.28. Some of the results follow.

target: T1, Gcr1 (UniProt P07261); assay: PBM E-score (8-mer binding enrichment) (E-score (-0.5 to 0.5)); higher = stronger / more preferred TF binding; most listed sequences are background and not binding sites; conditions: protein concentration: 100 nM; construct: GST-full length
T1 sequence: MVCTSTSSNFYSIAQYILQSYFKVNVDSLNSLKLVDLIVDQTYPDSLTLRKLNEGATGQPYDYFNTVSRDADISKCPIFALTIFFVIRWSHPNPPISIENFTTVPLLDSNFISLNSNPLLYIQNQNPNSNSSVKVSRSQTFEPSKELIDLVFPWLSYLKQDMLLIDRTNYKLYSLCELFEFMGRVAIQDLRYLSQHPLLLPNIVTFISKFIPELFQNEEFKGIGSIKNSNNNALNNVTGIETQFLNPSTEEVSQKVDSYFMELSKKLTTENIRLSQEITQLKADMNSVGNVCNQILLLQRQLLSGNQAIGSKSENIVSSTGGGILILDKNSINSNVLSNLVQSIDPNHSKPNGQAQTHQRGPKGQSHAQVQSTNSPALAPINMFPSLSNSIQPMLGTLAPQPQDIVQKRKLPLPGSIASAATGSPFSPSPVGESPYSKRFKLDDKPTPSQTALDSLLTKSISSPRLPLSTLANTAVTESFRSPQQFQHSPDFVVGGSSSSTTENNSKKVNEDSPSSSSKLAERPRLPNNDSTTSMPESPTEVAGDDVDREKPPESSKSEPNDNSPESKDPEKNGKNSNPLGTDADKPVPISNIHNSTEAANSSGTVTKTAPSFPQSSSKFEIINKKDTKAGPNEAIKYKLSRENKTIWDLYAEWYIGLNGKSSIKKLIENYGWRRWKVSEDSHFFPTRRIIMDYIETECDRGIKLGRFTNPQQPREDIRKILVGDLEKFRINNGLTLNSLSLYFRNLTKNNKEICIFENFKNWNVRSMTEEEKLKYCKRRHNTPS
Procedure: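 Universal 'all 10-mer' protein binding microarrays (Agilent AMADID 015681) probed with GST-tagged S. cerevisiae TFs (full-length or DBD) made by in vitro transcription/translation (PURExpress), about 100-200 nM. Bound TF was detected with fluorescent anti-GST. Each ungapped 8-mer (which stands for itself and its reverse complement) is scored by the PBM enrichment score (E-score), a modified Wilcoxon-Mann-Whitney statistic from -0.5 to +0.5, computed with the Universal PBM Analysis Suite. Scale: above 0.35 generally sequence-specific binding.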

| Sequence | PBM E-score |
| --- | --- |
| GCAGGCAC | -0.0907 |
| ACGACCGT | -0.27 |
| ACAGGGGT | -0.0188 |
| AGCAGCAA | 0.0994 |
| GGGCGGGA | 0.138 |
| AGCGTTTG | -0.0376 |
| CGGAGTGC | -0.0122 |
| AACCGGCA | 0.125 |
| CCATGCAG | -0.0643 |
| ATCGCGGC | 0.00952 |
| CACTCAAG | 0.026 |
| ACATTTCT | -0.0213 |
| AGGGCAAC | -0.152 |
| GCGCCTCA | -0.0124 |
| CGAACGCA | 0.0901 |
| ATTGCTTC | -0.00997 |
| AAAATAAG | 0.0722 |
| CCTCCATC | -0.181 |
| CAGGTTGA | -0.0942 |
| CACATAGG | 0.157 |
| AAAACAAC | -0.0583 |
| CGCAACAA | -0.123 |
| GCTTCTAA | 0.116 |
| CCCATATC | 0.114 |
| ATTTCCAG | 0.134 |

| Sequence | PBM E-score |
| --- | --- |
| CCCTTAAA | 0.204 |
| GGTAGGGA | -0.162 |
| AAGGCCGG | -0.139 |
| TCGTTACA | 0.126 |
| CCTTAGTC | -0.169 |
| AGCAACTA | 0.221 |
| GAGGCGAC | -0.165 |
| CTGGTTAC | 0.157 |
| ATCTTAAT | 0.0415 |
| GGCTCGGA | -0.283 |
| CAAGCGAA | -0.152 |
| TCGGCCCA | -0.12 |
| ATTTGGGG | 0.23 |
| CAAAGTTA | -0.00057 |
| CTGTAGCA | 0.0373 |
| AATCCATC | -0.0449 |
| GCTTAGAA | -0.0332 |
| CCATCCGC | -0.0189 |
| AAGTTTGT | -0.0246 |
| AGCACCAA | 0.25 |
| AAGGATTG | -0.098 |
| ACATCGTG | 0.0249 |
| CTCTCTCA | -0.322 |
| CATCTCAC | -0.0591 |
| CACACACC | -0.0217 |

| Sequence | PBM E-score |
| --- | --- |
| CTCCGGCC | -0.281 |
| AACCGATC | -0.0754 |
| GTCACATA | 0.192 |
| CGCATTGC | -0.0532 |
| ATGCCGTA | 0.0247 |
| CTGAACGA | 0.00724 |
| CACGCCTG | -0.126 |
| AAGTACCG | 0.0625 |
| AGTAAGCG | -0.12 |
| AAGTTCTC | -0.0896 |
| TATGCTAA | -0.0329 |
| CCACCGTC | -0.105 |
| AGACAGCC | -0.106 |
| CCCTTTAA | -0.052 |
| TATACGGA | -0.0408 |
| CGGATCAC | 0.111 |
| GCCTTACA | -0.0505 |
| CGTATCGC | 0.0929 |
| CGCACTAA | 0.117 |
| ACGAGGAC | -0.152 |
| CGTAATAA | -0.0172 |
| TACAGCCA | -0.22 |
| TTCCACAA | 0.347 |
| CTCCTCTC | 0.089 |
| GCCCCCAC | 0.084 |

| Sequence | PBM E-score |
| --- | --- |
| ATCGAAGA | -0.0526 |
| GAGCCGAA | -0.0454 |
| AAGGGAAT | -0.18 |
| ACTGACAC | -0.0565 |
| ATTCCACC | 0.0984 |
| CGATCCAC | -0.153 |
| ATGCAGGC | 0.0026 |
| AAAGAGGC | 0.146 |
| CAAGGCAG | -0.104 |
| AGGCGTGA | -0.191 |
| TGGCGTAA | -0.147 |
| CCTCAAGG | -0.104 |
| ACCCACCG | -0.0537 |
| CCGCTCCA | 0.101 |
| GATAAGCC | -0.196 |
| CACCGAAC | -0.117 |
| ACGTTAAT | -0.0343 |
| CCCCGTTC | -0.082 |
| AACCGTAC | -0.126 |
| CGTAGTTA | -0.1 |
| ATCGGGAA | 0.0657 |
| CACGCGTG | 0.0968 |
| TACCCAGA | 0.229 |
| CCGATCAG | -0.0573 |
| AGCGCACA | -0.137 |

| Sequence | PBM E-score |
| --- | --- |
| GTAATCAC | -0.0227 |
| GGCTTGTA | -0.16 |
| ACATGGGA | -0.0213 |
| ATTACTAG | 0.155 |
| GAAGGGGA | -0.0804 |
| GCGGCCAA | -0.0612 |
| ATTCCTGG | 0.165 |
| CACAATTA | 0.066 |
| ACACGGAC | -0.00335 |
| GACCTTCC | -0.171 |
| GACCGGTC | -0.0285 |
| GTATGTAA | -0.00739 |
| AGGCTCCA | 0.263 |
| CATATTAG | 0.117 |
| CCCGTAAA | 0.0838 |
| AACGGCCG | 0.0896 |
| AACCTCTC | -0.0178 |
| AGACGTAC | -0.0811 |
| CCCAGGCA | -0.0272 |
| CCGTGAGG | -0.0966 |
| CGATACTC | -0.101 |
| ACAACATG | -0.0588 |
| ATGCGGAG | 0.137 |
| AGTTCTAT | -0.184 |
| ACGAGTGA | -0.0397 |

| Sequence | PBM E-score |
| --- | --- |
| CTGTTGGC | 0.168 |
| TCGTTAGA | -0.105 |
| GGCTGGGA | -0.188 |
| GTATAAAA | 0.115 |
| GCCTCTCA | -0.0769 |
| CATCCCGA | -0.0295 |
| GGTTTCAC | -0.0347 |
| GTAACTTA | 0.0639 |
| TGTTAGAA | 0.0895 |
| ACACCTAT | 0.0167 |
| ACACTGTG | 0.0228 |
| AAAGGGGA | 0.197 |
| TCCGAACA | 0.123 |
| ACACGCAC | 0.0159 |
| CGCGCGAC | -0.16 |
| TCTTAGCA | -0.0471 |
| AGTAAGTG | -0.165 |
| GGCGCGAA | 0.0684 |
| ATATATTA | 0.0581 |
| GTGAACAC | -0.209 |
| AGTGACCA | -0.0011 |
| GCTACCCC | 0.00114 |
| CGTACCAC | 0.17 |
| CAGCAGCC | 0.359 |
| AACACCTA | -0.121 |

| Sequence | PBM E-score |
| --- | --- |
| CACGCAAC | 0.0588 |
| ACGGTCAC | -0.137 |
| CCCATGCC | 0.04 |
| ACGCCACG | -0.233 |
| GACACACA | 0.0127 |
| ATCCGCCC | -0.214 |
| CCGCCAGA | 0.144 |
| CAGAAGGG | -0.0113 |
| TCCAGTAA | 0.21 |
| AGTGTTTG | -0.114 |
| TACTAGCA | 0.109 |
| CTTAGGAC | -0.0453 |
| CCCACGAA | 0.0881 |
| ATCATGAG | -0.24 |
| GATACCTA | 0.0383 |
| ATTTCGCC | 0.0106 |
| CGTTTCTA | -0.00405 |
| AGCGAACG | -0.216 |
| CGGTTGCA | -0.115 |
| ACGAATCG | -0.0805 |
| CGGAGCCG | 0.0209 |
| GATACAGA | 0.145 |
| CGGCTGAC | -0.0859 |
| CTTCTCGC | -0.0601 |
| AGCTACAC | 0.109 |

| Sequence | PBM E-score |
| --- | --- |
| AACTGGCC | -0.022 |
| CCAAGATA | 0.00341 |
| AGCGTTAT | -0.0559 |
| ACGATGTC | 0.0246 |
| GATATCTA | -0.0937 |
| CATCGCCA | -0.0864 |
| AAACCCTT | -0.111 |
| GAAGGTGC | 0.0418 |
| GTTCTCTA | -0.102 |
| CGCTTAGA | -0.096 |
| CATGCCAG | -0.0524 |
| CGCCGTGC | -0.00662 |
| GCTCGCGA | 0.0716 |
| GATAGGTA | 0.085 |
| AATCCTGG | 0.236 |
| ACATTTAG | -0.0569 |
| TCGATCGA | -0.201 |
| GGCTTTAA | 0.0001 |
| CAATCGGG | 0.0633 |
| CTGCGTCC | 0.0798 |
| AGCCAAAC | 0.0142 |
| CGAATCTC | 0.121 |
| ATACTAAA | 0.0949 |
| ATCGTGAG | -0.119 |
| CGCGTCAA | -0.125 |

| Sequence | PBM E-score |
| --- | --- |
| AGCAAATG | -0.173 |
| GGCATTAC | 0.0997 |
| TAGAGACA | -0.00352 |
| ATCCTGTA | 0.28 |
| GAGATCTC | -0.275 |
| CACGAGGA | -0.15 |
| CCGAGCTA | 0.0423 |
| CATGCAAG | 0.0258 |
| TATGTAGA | -0.151 |
| AGATGAGC | -0.102 |
| GGAATATA | 0.0473 |
| CTACAGAG | -0.153 |
| AGTAACAA | 0.00147 |
| CGCCTACA | -0.0275 |
| CGCCTAGC | -0.206 |
| GCACGCAA | -0.217 |
| GAGTCATA | 0.0243 |
| ATATTTAC | 0.143 |
| GGAACGGA | -0.0468 |
